± gives the standard deviation of the averaged measurements. The list shows a part of the results.
System: PfAP2-LT AP2 domain (GST-tagged)
Experiment: gcPBM binding intensity (ln(normalized median fluorescence intensity)); higher = stronger DNA binding
Method in brief: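 Plasmodium falciparum DNA-binding domains carrying a GST tag were expressed in E. coli and applied for 1 h, at about 25 μg on average, to an Agilent 4 × 180k array. The array held primer-extended double-stranded 36-bp intergenic genomic probes together with negative controls, and binding took place in 1× PBS with 1% milk, 0.2 mg/ml BSA, 0.5% salmon testes DNA and 0.03% Triton X-100. An Alexa488 anti-GST antibody detected bound protein, and the array was scanned at 488 nm. Binding intensity is taken as the highest Masliner-normalised natural-log median intensity across replicate spots of either probe orientation.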

Row | Sequence | gcPBM binding intensity (ln)
1 | AAAAATTCTTTTTCATCTATATGCAGAAAGAAAAAG [CACACA_negctrl_site1201] | 8.08 ± 0.4
2 | CTAAATAAAGTTAACACACACATAATATATATATGT [CACACA_site486] | 9.29 ± 0.33
3 | TAATTTTTATGAAGAAGTACAAAATCTACTATCATA [XGTACX_site4985] | 8.24 ± 0.39
4 | CATAAACTTTTTAACACACACTTATATATATATATA [CACACA_site4747] | 9.24 ± 0.13
5 | TACATCTGTAATGTGTGTACATATATGTATATATTT [XGTACX_site1805] | 9.07 ± 0.39
6 | AATGAAATAAAATAAAGTACATATATGTAAAAGTAG [XGTACX_site5650] | 9.79 ± 0.49
7 | ATATATATAATATGATGTACATATTTATTTATATAT [XGTACX_site7333] | 8.76 ± 0.35
8 | TTTTTTTTTTTTTACACACACAAAATATTATCTGTA [CACACA_site5378] | 9.12 ± 0.42
9 | AATTGAAAAGAATGAAGTACACATTTGATGATACAT [XGTACX_site5182] | 8.8 ± 0.44
10 | ATATAAAAAAAAGATGAAAAAAAAAATGAAAGAAAG [CACACA_negctrl_site1266] | 8.72 ± 0.53
11 | ACTCTCTTATATTAAACACACATATTTATAGGTATA [CACACA_site7302] | 8.96 ± 0.43
12 | ATTTTAGAATAAATTTTTTACATTAAAAAACTATTT [CACACA_negctrl_site1414] | 8.21 ± 0.54
13 | GTATCAAAAGAATACACACACACATACATATATATA [CACACA_site3796] | 10 ± 0.28
14 | CATACAATAAATATGGTGCATTTTATGTAACCGTTT [GTGCAC_site9420] | 8.82 ± 0.42
15 | TGAACATATTAAAATTGTACATATGCACAATATGTA [XGTACX_site6801] | 8.76 ± 0.41
16 | AAGGATATAACATACACACACACACGGATATAAATA [CACACA_site7867] | 10.2 ± 0.37
17 | CATCTAAATTGTAGTTGTACACCTTAATCTTATTAC [XGTACX_site7547] | 8.93 ± 0.54
18 | TATTTTATCATTTGCACACGCACACCGACATAAAAA [CACACA_site4348] | 9.26 ± 0.28
19 | ATAAAAATATGATCAACACACGATTAAATATTCATA [CACACA_site1495] | 8.85 ± 0.43
20 | TGAAAAATAAATAAATGTACATATATATATATATAC [XGTACX_site7310] | 9.02 ± 0.27
21 | AAAAGGTTATCAATATGTACATATTTTTTTATTTTT [XGTACX_site3277] | 8.79 ± 0.49
22 | AGAAATACAAAATAAATATAAGAAACAAAATATTTA [CACACA_negctrl_site780] | 8.73 ± 0.49

Row | Sequence | gcPBM binding intensity (ln)
23 | TTTTAATTAAAACACACACACACATATATATATATA [CACACA_site2291] | 9.83 ± 0.18
24 | TATTTCATCATATTGTGTACTTAATTTATATAATTA [XGTACX_site5753] | 8.66 ± 0.47
25 | TGATAATTTTTTACATGTACAAGTTTGTTTTTGCAT [XGTACX_site125] | 9.09 ± 0.46
26 | TTATCGGTATAATATAGTACATATAGATATATAATA [XGTACX_site1440] | 8.68 ± 0.41
27 | GATAAAATGGATGGATGTACATTATTTCCATATAAT [XGTACX_site7781] | 8.77 ± 0.44
28 | ATATTACTTCCTAAGTGTACAAGTAAGGAGAAAAAA [XGTACX_site3921] | 8.77 ± 0.45
29 | AAAAAAAAAAAAAACACACACACAAAATAAACAAAC [CACACA_site2720] | 9.66 ± 0.44
30 | AGATGTTTTTATATATGTACTTAAATACACAAATAT [XGTACX_site8250] | 8.7 ± 0.43
31 | AAAAAAAAAAAAATGTAATTTTTTAATTATTTATAT [GTGCAC_negctrl_site436] | 8.07 ± 0.46
32 | CATATATTTTTGTATAGTACTTTTTTTATTCGTTTT [XGTACX_site1860] | 8.84 ± 0.54
33 | ATAATGGAGAAATAAGCATGCATTATATTATAAAAA [TGCATGCA_site325] | 8.88 ± 0.49
34 | AATTTCTATTTTGTGAGTACATACTCCTATTATATA [XGTACX_site3210] | 8.88 ± 0.47
35 | TAAAAGTTAATATAAACACACAAAAATTAATAAATA [CACACA_site6316] | 8.73 ± 0.45
36 | TGAATATTTCTATATACACACATATAAATATAAATA [CACACA_site7593] | 8.72 ± 0.41
37 | TATAATGAGAAGATATAATATATAGGGGGTAATTCT [GTGCAC_negctrl_site228] | 9.23 ± 0.18
38 | ATATATATATATATATGTACTTATTTGTATAAATAC [XGTACX_site8031] | 9.54 ± 0.29
39 | TTTTTTTCATAAGAAGCACACAAAAAATGATAGAGA [CACACA_site8401] | 8.63 ± 0.48
40 | TAGATTTTTATGCGTGCACACATTTAAAAAAAAAAC [CACACA_site3421] | 9.01 ± 0.41
41 | ATACCTACATACATACGTACATATATATATATAATG [XGTACX_site234] | 9.08 ± 0.28
42 | AAATATAATAACATAACACACACATGTATTTATAGG [CACACA_site8009] | 9.28 ± 0.38
43 | TTTTAATAAATTCAAAACATAAAAAGGAAAAAAAAA [XGTACX_negctrl_site471] | 8.29 ± 0.6
44 | TATTGGAAAATTAGAAGTACTTTCATATATTAGACT [XGTACX_site4503] | 8.51 ± 0.42
